# Experimental data reported in PubChem BioAssay AID1347417 (National Center for Advancing Translational Sciences (NCATS), 2020).
# The whole screen tested about 120,000 compounds, of which about 5,300 (4.4%) were called active. The inconclusive results got no clear call from the source; some entries with a clear call stand among them for comparison. Calls come from the whole dose curve; as a rule, active = well fitted inhibition curve with a large enough effect; inconclusive = small, poorly fitted or top-dose-only effect; inactive = no such curve, though single readings can be large or run the other way. Potencies beside an inconclusive call are fits to weak or partial responses and may not hold up.
# Assay: qHTS Primary assay for Inhibitors of Plasmodium falciparum Dd2 growth in vitro; note: nearly all actives have a fitted effect of over 65% in size;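 for activity, negative = inhibition: plate controls were DMSO vehicle for no effect and reference drug for full effect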
# Conditions: P. falciparum Dd2 growth, SYBR Green, 72 h; activity, negative = inhibition: at 28.9 µM (top of the series) unless noted; series mostly up to 28.9 µM
# Method in brief: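 Readout: SYBR Green fluorescence, 485 nm excitation, 535 nm emission, after ~16 h lysis at 37C. Before that, Dd2-infected red cells (2.5% hematocrit) grew 72 h with compound, 29 uM top final concentration.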
# Potency is the fitted concentration of half-maximal effect; tags give direction and shape of the fitted curve.
Structure (SMILES),Potency,"activity, negative = inhibition",outcome
CNCc1ccc(C(F)(F)F)cc1,inactive,–,–
COc1ccc(-c2c(C#N)c(SCC(=O)Nc3cccc(Cl)c3)nc(C)c2C(=O)Nc2ccccc2)cc1OC,"inconclusive: 17.8 µM [inhibitor, single point]",–,–
O=C([C@@H]1C[C@H](F)CN1C(=O)c1ccc(OC(F)(F)F)cc1)N1CCCCC1,"inconclusive: 17.8 µM [inhibitor, single point]",–,–
COc1ccc(C(=O)NC[C@@H]2C=C(C)[C@H](Cc3nc4ccncc4[nH]3)C[C@H]2C(C)C)cc1,"inconclusive: 5.62 µM [inhibitor, single point]",–,–
COc1ccc2c(c1)CCc1c-2n[nH]c1C(=O)N1CCc2c(nc3cc(-c4ccccc4)[nH]n3c2=O)C1,"inconclusive: 0.282 µM [inhibitor, full curve]",–,–
C[C@H](C(=O)N1Cc2ccccc2CC2(CCN(Cc3ccncc3)CC2)C1)c1ccccc1,active: 11.2 µM,–,–
COCC1(C(=O)N2CCOC(c3ccc4cc(OC)ccc4c3)C2)CCC1 (centres undefined),"inconclusive: 4.47 µM [inhibitor, partial curve, poor fit]",–,–
Cc1nn(-c2cccc(Br)c2)c(C)c1[C@@H]1C=C[C@@H](NC(=O)CC(C)(C)CC(=O)O)C1,active: 8.91 µM,–,–
Cc1cc(Nc2ccc(Br)cc2)n2nc(-c3ccccc3C)nc2n1,"inconclusive: 14.1 µM [inhibitor, single point]",–,–
CN(C)C[C@@H]1CN(S(C)(=O)=O)C[C@H]1NC(=O)CCn1cccn1,inactive,–,–
CC(=O)N1CCC(Cc2ccc(C(=O)O)cc2)CC1,inactive,–,–
CC(C)CCN1CCC2(CC1)C(=O)NCN2Cc1ccc(Cl)cc1,"inconclusive: 1.78 µM [inhibitor, partial curve, poor fit]",–,–
C=CCNC(=O)c1cn2c(n1)CN([S+](=O)([O-])c1cccc(OC)c1)CC2,–,inconclusive: -80.8% [inhibitor],–
CNC(=O)c1cccnc1N1CCOC(c2ccc3cc(OC)ccc3c2)C1 (centres undefined),"inconclusive: 8.91 µM [inhibitor, single point]",–,–
COc1cc(Cn2c(=O)oc3ccc(C)cc32)ccc1OCCC(C)C,"inconclusive: 20 µM [inhibitor, single point]",–,–
O=C1Nc2ccccc2CN(Cc2ccc(C(F)(F)F)cc2)C12CCNCC2,active: 6.31 µM,–,–
O=C1NCCCC12CCN(Cc1cccc(C(F)(F)F)c1F)C2 (centres undefined),inactive,–,–
CCCNC(=O)c1cc2c(=O)[nH]c(-c3ccccc3)cn2n1,"inconclusive: 10 µM [inhibitor, partial curve, poor fit]",–,–
CC1(c2noc(-c3ccccn3)n2)CCN(C(=O)CCCc2nc3ccccc3s2)CC1,"inconclusive: 0.891 µM [inhibitor, partial curve, poor fit]",–,–
Cn1cc(-c2nc(N3CCOCC3)cc3c2CN(CC2CC2)C3=O)cn1,"inconclusive: 17.8 µM [inhibitor, single point]",–,–
CC(C)CCO[C@H]1COCCN(C(=O)c2ccccc2)C1,"inconclusive: 39.8 µM [inhibitor, partial curve, poor fit]",–,–
O=[S+]([O-])(Nc1ccccc1)c1ccc2c(c1)OCCN(Cc1ccc(F)cn1)C2,"inconclusive: 31.6 µM [inhibitor, single point]",–,–
O=C(c1ccc(C(F)(F)F)cc1)N1CCn2c(nn(-c3ccncc3)c2=O)C1,inactive,–,–

Structure (SMILES),Potency,"activity, negative = inhibition",outcome
COc1cccc(C2CC(=O)Nc3c2c(=O)n(C)c2nc4ccccc4n32)c1OC (centres undefined),"inconclusive: 8.91 µM [inhibitor, single point]",–,–
Cc1cc(CN2CCC(CO)(Cc3ccccc3Cl)CC2)cc(C)c1O,"inconclusive: 0.0631 µM [inhibitor, full curve, poor fit]",–,–
Cc1ncc2n1C(=O)N(C1CCN(Cc3ccc(N(C)C)cc3)CC1)C2,"inconclusive: 11.2 µM [inhibitor, single point]",–,–
COc1ccccc1C(=O)N1CCC(N2CCC[S+]2(=O)[O-])CC1,inactive,–,–
CC1(C)[C@H]2CC[C@@H](CNC(=O)c3ccccn3)[C@@H]1C2,"inconclusive: 31.6 µM [inhibitor, single point]",–,–
Cc1cc(C)n(CCCN(C)Cc2ccccc2C#N)n1,inactive,–,–
CC(C)(C)CC(=O)N[C@H]1C[C@@](O)(C(=O)NCC(N)=O)C[C@@H](O)[C@@H]1O,inactive,–,–
Cc1ccc(C(CC(=O)N2CCC(C)CC2)c2cn(C)c3ccccc23)cc1 (centres undefined),inactive,–,–
CC(C)c1ccc(CN2CC[C@@H]3OCC(=O)N(C(C)C)[C@H]3CC2)cc1,"inconclusive: 11.2 µM [inhibitor, single point]",–,–
COc1cccc(CC(=O)N[C@@H]2CN(c3ncccn3)C[C@H]2CO)c1,inactive,–,–
CC(C)NC(=O)N1CCC(c2noc(-c3ccccc3)n2)C1 (centres undefined),–,–,inactive [at 5.79 µM]
COc1ccc(C(=O)N2CCCOCCNC(=O)[C@@H]3CCCC[C@@H]32)cn1,inactive,–,–
CC(C)(C)CC(=O)N1CCC(N2C(=O)CCC2C(=O)NCc2cccnc2)CC1 (centres undefined),inactive,–,–
COCc1cn([C@H]2CO[C@H]3[C@@H]2OC[C@H]3OC(=O)Nc2ccc(C(C)=O)cc2)nn1,"inconclusive: 14.1 µM [inhibitor, single point]",–,–
O=C(c1cccc(OC2CN(Cc3ccc(F)cc3F)C2)c1)N1CCCC1,"inconclusive: 1.12 µM [inhibitor, partial curve, poor fit]",–,–
CCOC(=O)C1=C(CN2CCN(c3ccc(Cl)cc3)CC2)NC(=O)NC1c1ccc(OC)cc1 (centres undefined),"inconclusive: 17.8 µM [inhibitor, single point]",–,–
O=C1CC2(CCN(CC3CCCC3)C2)Nc2ccccc2N1 (centres undefined),"inconclusive: 10 µM [inhibitor, partial curve, poor fit]",–,–
CCc1nc2ccc(C(=O)N3CCN(c4ccccc4F)CC3)cc2nc1CC,active: 2.82 µM,–,–
Cc1n[nH]c(C)c1C(N)C(=O)N1CCC(c2nnc3n2CCCCC3)CC1 (centres undefined),inactive,–,–
CCNC(=O)N1CCC(c2nnc(CN3CCCC3)n2CC)CC1,inactive,–,–
CS(=O)(=O)N1C[C@H]2CCN(C(=O)c3cc(F)ccc3F)C[C@H]21,"inconclusive: 3.98 µM [inhibitor, single point]",–,–
COCCCNC(=O)c1sc2ncccc2c1-n1cccc1,inactive,–,–
CC(C)(C)c1nc(N2CCOCC2)ncc1C(=O)O,inactive,–,–

Structure (SMILES),Potency,"activity, negative = inhibition",outcome
Cc1ncc2n1C(=O)N(C1CCN(Cc3ccc(F)cc3)CC1)C2,"inconclusive: 31.6 µM [inhibitor, single point]",–,–
O=C(Cc1ccncc1)N1CCC2(CC1)NCCc1c2[nH]c2ccccc12,"inconclusive: 17.8 µM [inhibitor, single point]",–,–
CC(=O)NC1CCN(C(=O)c2coc(COc3ccc4c(c3)OCO4)n2)C1 (centres undefined),inactive,–,–
Cc1ccc(-c2noc(CN(C3CCCCC3)S(=O)(=O)c3ccc(Cl)cc3)n2)cc1,"inconclusive: 12.6 µM [inhibitor, single point]",–,–
Cc1ccc(CNc2ncnc3c2c(-c2ccccc2)cn3-c2cccc(Cl)c2)cc1,"inconclusive: 17.8 µM [inhibitor, single point]",–,–
CN1C(=O)[C@@H]2C[C@@H](CN2Cc2ccc(Cl)cc2)Oc2ccccc21,"inconclusive: 31.6 µM [inhibitor, single point]",–,–
COCC1CN(C)CC12CCN(Cc1ccc(F)c(Cl)c1)CC2 (centres undefined),active: 5.01 µM,–,–
COc1ccc(-c2nc3n(n2)C(c2ccccc2F)C(C(=O)Nc2cccnc2)=C(C)N3)cc1OC (centres undefined),active: 10 µM,–,–
Cc1cccc(-n2c(=O)c3c(c4cc(C)ccc4n3C)n(CC(=O)Nc3ccccc3C(F)(F)F)c2=O)c1,inactive,–,–
COc1cccc(CC(=O)N2CC(Oc3ccc(-c4noc(-c5ccncc5)n4)cc3)C2)c1,"inconclusive: 2.51 µM [inhibitor, full curve, poor fit]",–,–
Cn1nc(C2CCN(C(=O)Nc3ccc(Cl)cc3)CC2)[nH]c1=O,"inconclusive: 22.4 µM [inhibitor, single point]",–,–
CCOc1ccccc1CN1C(=O)C2(CCOCC2)CC1c1nnnn1C(C)(C)C (centres undefined),inactive,–,–
O=C1CCN(Cc2ccc(O)cc2)CCCC(c2nc(-c3cnccn3)no2)CCN1 (centres undefined),"inconclusive: 6.31 µM [inhibitor, partial curve, poor fit]",–,–
COc1ccc(-c2cc3c(=O)n(CCNC(=O)c4n[nH]c5c4CCCC5)ccn3n2)cc1,"inconclusive: 2.51 µM [inhibitor, partial curve, poor fit]",–,–
NC(=O)c1cccc(CN2CCC3(CC2)CC(c2ccccc2)=NO3)c1,"inconclusive: 14.1 µM [inhibitor, partial curve, poor fit]",–,–
CC(C)(C)OC(=O)N1CCC(c2c(C(=O)N3CCc4ccccc4C3)cnn2-c2ccc(Cl)cc2)CC1,"inconclusive: 17.8 µM [inhibitor, single point]",–,–
Cc1nc2n(c1C(=O)NCCc1ccccc1)CCC(Nc1ccc(F)cc1)C2 (centres undefined),"inconclusive: 2.82 µM [inhibitor, single point]",–,–
CN(C)C(=O)c1cccnc1OC1CCN(C(=O)c2ccccc2Br)C1 (centres undefined),inactive,–,–
CN(C)C[C@@H]1CN(c2ccccn2)C[C@H]1NC(=O)Cn1c(=O)oc2ccccc21,inactive,–,–
COc1ccc(-c2nc(C)nc3c2CN([S+](=O)([O-])c2cccs2)CC3)cc1,inactive,–,–
Cc1cccc(C(=O)N2CCCCCC2c2nc(-c3cccnc3)no2)c1 (centres undefined),"inconclusive: 11.2 µM [inhibitor, partial curve, poor fit]",–,–
C[C@@H](NC(=O)c1cnccn1)c1onc(-c2ccccc2)c1C(=O)O,inactive,–,–
O=C(NC1CCCCC1)N1CCCC(c2noc(COc3ccccc3F)n2)C1 (centres undefined),"inconclusive: 8.91 µM [inhibitor, partial curve, poor fit]",–,–
